Source: publication PMC10726135
The other results are listed elsewhere or left out. At the low end of the ranking the order means little. The protein was read in a cell extract, so binding may be indirect.

What follows are sequences tested against T1, HNF4alpha2 (COS-7 nuclear extract) (UniProt P41235) (assay: protein-binding microarray). Details: COS-7 nuclear extract on double-stranded Agilent 4x180k PBM; binding buffer, salt, pH and temperature not given; high values mean tight binding; double strand, one strand shown; sequences stand for … in …GCCTAGGGAGATTAGAGTATCGGTCGA.
T1 sequence: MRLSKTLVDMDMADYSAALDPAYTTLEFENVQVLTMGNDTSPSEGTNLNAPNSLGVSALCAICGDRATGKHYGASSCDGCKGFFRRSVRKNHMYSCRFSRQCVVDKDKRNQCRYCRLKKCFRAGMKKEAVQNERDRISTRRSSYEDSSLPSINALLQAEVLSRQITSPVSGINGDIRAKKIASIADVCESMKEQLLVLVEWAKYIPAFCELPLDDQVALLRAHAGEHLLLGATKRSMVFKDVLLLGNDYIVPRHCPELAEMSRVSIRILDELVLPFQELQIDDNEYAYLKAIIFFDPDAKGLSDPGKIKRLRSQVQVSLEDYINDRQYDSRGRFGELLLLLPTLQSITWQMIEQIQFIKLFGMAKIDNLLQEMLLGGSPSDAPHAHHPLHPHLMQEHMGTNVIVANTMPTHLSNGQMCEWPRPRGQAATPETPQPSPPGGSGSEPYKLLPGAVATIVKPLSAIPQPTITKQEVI

Sequence | binding signal (log2 normalized intensity)
GTGCCGTGAGGGGTTATGGAGAGTGGAAGA | -0.47
ATCTTTATCTTTTCACTTTTTCCCTGCATG | 0.105
TGAGTTCTGTCCTTTGTCCCACATCTGTGA | 1.14
ACCCTCAGGCTCCACCGGATGGATAGGAAT | -1.17
AGGCATACTCCTCCTGGCTTCTGGACTATG | 2.56
GTCTGATTGGTTGCAGAAGGCAGCCAAACA | -1.23
GGGAAAGACTTAGGATCTAGCAAATTTGGG | -0.0294
CCCTCCTGAACATAATTGCAAAATCCTTAG | -0.55
GCAGCCTCTGAGATGGACTCCAGTGATCTT | 1.97
TTGGAGGAGGGGGCGGTTAAACATTCAGAT | -1.07
CGACCCCTCGAGGCAACCTTTGACCTGGTA | 7.48
TATTTGAGTTCTTCAAGTCAGTCAAAATGA | 1.3
GCATTCCAAGAGAGCAAAGTGCTTTTTAAC | 0.786
GACTTTAGAACCCAAATAGACTTAAGTCTG | -0.295
CTTTCATGATCCTTGGCTGTGTGACTCACC | 0.913
GGAGTTCCATTTAGCTTCAGTCTAAATGAT | -0.0539
AATGGCTAAGGGCATCTACTTTTAAAACGC | -1.19
TCATTTGGGGCGGGCGGTCGGAGTCCACGT | 2.48
TAAGTATGACCAGCAGGGTGACCAGTGGAC | 1.44
ACCTCTCTGATGCCATGATAAGCAGTGTGG | 0.855
CACTATTGTGCTAATATAAGTCATTGCCAT | 1.28
ACAACACACCACCTGCTACTCCCTTTGGAA | -1.13
ACCTGGGTGTAGGTGCTGCACCTTGAAACC | 2.05
TGAACAATTGATTTATAGCCTTTTTGCCCA | 1.29

Sequence | binding signal (log2 normalized intensity)
CTTTGTGGCAGGAGGAGCTGTTTGACATCC | 0.0869
CACTCGCCTGACTCCCTGACGCCATCTGGC | -1.05
GCTGCACAGTGGGGAGGGCAGGGTCAGAAC | 0.706
ACATCCTGGATTCTCAAACCTTCCAAAGTT | -0.184
TGCTCACGTTTTCCTGCTGACCCTCTCCCC | 3.85
ATTTGCTCTGTCATCAACGTATCTGCAGGC | 1.22
AAGAGCTGAGGAAAAAAGTTTGAAAATGCC | -1.09
CGCACCTGCCTGTCTCACCTCGCTATCACC | -0.761
AGGGATGGCATCACCTTTGGTCAGCCCACT | 1.45
GGTCCACCCGTCCGCTTGATGCCTGTTGCT | -0.505
GGAAAACAGGCTCAGCAAAGTCAGGTCAGT | -0.872
TCACAGTGTGGGGCAAATCTGAGGTCAAAG | 2.22
AATGCCAAGGACTGAAAGAACACAGCGCAG | -0.993
TGAAGATGCCTGATAAAGGGGGCAAAGGGC | 5.79
TTGTTTATTCAGAGTTAGCTAAGCTTCACT | -1.12
GAGCAGTCAAACTGGTTTCTTGTCTGCCCC | 3.42
AGGGGCTGCTGGGAGTTGTAGTTTTTTGGG | 1.54
ACCTTGTTTTGTCTTCTGTTTGCAAATGGA | 2.54
TGCATTCTTGTAGGTTTTTTTTTTTTTTAA | 2.29
TCTGCTGAGGTGGCTGCAGAGTGGGAGGCC | -1.03
CTTTTTTTTTTCAAGTGTTAGCTGTTTCCA | 1.22
TTCCCTCCACTTCCTTTCTTTCCCTTTCTG | 1.48
AGGGTTTAAAGGGCAGAAGAAGGGATTTAG | 0.769
GTTAGATAGAGGAGTCAAGCAAACACACTT | -1.12

Sequence | binding signal (log2 normalized intensity)
ACTCCTGGAAAAACCACACACTCCATAACT | -1.03
TGCACAGGTTCCTCGCCTATGGTATGTATG | 1.09
TTGAAGCTCCAAGATAGGAATGTACATAAT | 1.11
CATAGTTGACATTCCATCATTATCCTGTGT | 1.68
CCCCTGACTACCAGCCAGTAGGAGTTGGAA | 0.316
ACTTTACAGATAAAGAAACCATAGACCCTA | -1.13
AGATAGCTTGAGGCCAGCTCATAGGGATCA | -1.17
CACATTCAGCCCACTTCCTACCATCAAAGG | 0.638
TTTGACCATCCACGGGTCCATGATTGCTGT | 1.51
GTGAGAGGCGGAACAAGGCTGAAGGGAAGC | -1.08
GTAAAAACAGTTATGGATTAAAAGCACATA | -1.08
ACTCCAGAACCAAAGTCCTAGAGTCCCTAT | -1.16
TAGCAGGTGACAAATCCAGGATCAAATACA | -1.24
CTAGGCAATCCCATGACCTTTGTACTAATG | 7.57
AAGCACTTCAAAGGTCGTGTGCTTATCACA | 1.98
CAAAGTCCGCTTGCCTGAGGGTCATGACTA | 2.26
TATGTTGTCCGGACACCAACCTTTGATCAT | 5.62
CCGGGAATCCTCAGCCTTCTCCGCGGCGGG | -1.18
TTTTTGGCCTTTACCCCTTGAGTTTGAACT | 3.59
CATATTTGCTTAAGCTTTCTGTCTGCAGCT | -1.09
GCAGCAGCCGGCCTCTTAACAGATGAGGAC | -1.12
TTTGGAAAACTGGCCCTGATTTCAAAGTTC | 2.26
CAAATGCTTCCAAGAATTTAAGAGAACTAG | -1.15
TCGCAGCTGCATAGATAAGAAAGGCTACAA | -1.21

Sequence | binding signal (log2 normalized intensity)
CTAAGCAGGCACATTCCAGGACCTTTGCTC | 4.08
TGGTGGACGTACGCTCCCAGTATGAGCGGC | -0.952
TTACATGCCTTATCTGGTTCAAAGGTCATT | 7.65
AAAGCCACCCCTTTCTCCTCTCTTTCCATA | 0.557
CAATGTGTGACAGAAGTCATGTCTCATTGC | 0.776
ATGCCAGATGACCTTTGCCCTTGACTTTTT | 8.55
AGAGGAAAGCCCTAGCTGACTGCGTCAGGC | -1.1
CGAGAAGGCAGCCACCCACAAGCCAAGGAG | -1.1
GGCGGCGCGGCCGGAGCGGCGGACCCGGCG | -0.781
AGGGGAGGCTGAGGTTTTCATCCCAGGGCT | -1.13
TTAACCTTTGATCATATGCATTTCCCTAGA | 3.08
ATCACACAAAACGCACAGAGGCCCCTGATG | -1.03
CAGAGGGTGGCAGCAGCAGGCAGGGACTTT | 0.922
TTGCAGCAAGGAATTCAACCCTTGTCACTT | 2.61
TAGTCTAGACTTTGCTTTCTTGGAGGTTAA | 1.7
GACATGCAGTATGGGGACTTTGGACTCCTG | 7.53
GATTTTGTTGGGGAACTTTGCCCGGATTCC | 2.59
AAAGGTTAACATTCTTGCTTTCTGACTCTT | 1.19
GGCAAGCAGGAGCTGGCCTGGTAGGACAGG | -1.1
GAGAGTCAACACTGAAATAGCATACCTTTA | -0.915
GCCAGGGATTAAAGAATTCGTCCAGGGCCG | -1.04
